{"source": "PubChem BioAssay AID1345082", "about": "(National Center for Advancing Translational Sciences (NCATS), 2018)", "note": "Several values for one entry are separate records, joined by “and”; a condition that tells them apart may be missing. Equal entries are not always repeated. Among all 94,000 compounds or so, about 4,000 (4.3%) were called active. Inconclusive means that the source gave no clear call. Such entries were picked first, then a sample of the others. The call rests on the fitted dose curve; in most records, active means well fitted inhibition curve with a large enough effect; inconclusive means small, poorly fitted or top-dose-only effect; inactive means no such curve, though single readings can be large or run the other way. Where the call is inconclusive, the potency comes from a doubtful curve fit. On the % scale 0 is the no-effect control and ±100 the full control effect; potency means the concentration at half of the fitted maximal effect; tags describe the fitted curve by direction and shape."}
{"test": "Cytotoxic Profiling in NIH 3T3 Cell Line of Diverse Libraries Using Quantitative High-Throughput Screening; further: nearly all actives have a fitted effect of over 55% in size", "conditions": "NIH 3T3 viability, CellTiter-Glo ATP luminescence, 48-72 h; activity change, negative = cytotoxicity: at 96.7 µM (top of the series) unless noted; series mostly up to 96.7 µM", "in_short": "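Cytotoxicity was measured by CellTiter-Glo ATP luminescence after 48 or 72 h compound exposure at 37 °C. Mouse NIH 3T3 fibroblasts were seeded at 400 cells/well and dosed by 23 nL pin transfer.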"}
{"smiles": "O=C(c1ccc(F)cc1)N1CC(Oc2cccc(-c3nc(-c4ccccc4)no3)c2)C1", "Potency": "inconclusive: 50.1 µM [inhibitor, partial curve, poor fit]"}
{"smiles": "Cc1cccc(-n2nc(C)c(CCC(=O)N3CCSCC3)c2Oc2ccccc2)c1", "Potency": "inconclusive: 50.1 µM [inhibitor, partial curve, poor fit]"}
{"smiles": "F[C@@H]1CN(Cc2cnc3ccccc3c2)C[C@@H]1OCc1nc2ccccc2[nH]1", "Potency": "inconclusive: 11.2 µM [inhibitor, full curve, poor fit]"}
{"smiles": "CN(C/C=C/c1ccccc1)C(=O)C1CCC(=O)N(Cc2cccc(F)c2)C1", "note": "(configuration not stated)", "Potency": "inconclusive: 89.1 µM [inhibitor, single point]"}
{"smiles": "COc1cccc(C(=O)N2CCCC2C(=O)N2CCCC2c2nc3ccncc3[nH]2)c1", "note": "(configuration not stated)", "activity change, negative = cytotoxicity": "inactive: -13.6%"}
{"smiles": "COc1ccc(C(=O)N2CCC(N3C(=O)C(O)C34CCCCC4)CC2)c(OC)n1", "note": "(configuration not stated)", "activity change, negative = cytotoxicity": "inactive: -12.4%"}
{"smiles": "O=C(C1CC1)N1CCn2c(nn(-c3ccc([N+](=O)[O-])cc3)c2=O)C1", "Potency": "inconclusive: 56.2 µM [inhibitor, partial curve, poor fit]"}
{"smiles": "CCCCOc1ccc(C(=O)N2CCC(Cc3nc(-c4cnccn4)no3)CC2)cc1", "Potency": "inconclusive: 44.7 µM [inhibitor, partial curve, poor fit]"}
{"smiles": "c1coc(-c2nc3nccc(-c4cc5ccccc5o4)n3n2)c1", "Potency": "inconclusive: 50.1 µM [inhibitor, partial curve, poor fit]"}
{"smiles": "COc1cccc(N2C(=O)NC(=NC3CCCCC3)C23CCN(C(=O)c2ccc(C(F)(F)F)cc2)C3)c1", "note": "(configuration not stated)", "Potency": "inconclusive: 70.8 µM [inhibitor, single point]"}
{"smiles": "O=C(Cn1cccc1-c1nc(-c2ccc3c(c2)OCO3)no1)N1CCCc2ccccc21", "activity change, negative = cytotoxicity": "inactive: -26.8%"}
{"smiles": "COCCNc1nc2c(S(=O)(=O)c3ccc(C(C)C)cc3)nnn2c2ccccc12", "Potency": "inconclusive: 70.8 µM [inhibitor, single point]"}
{"smiles": "COc1cc(SC)ccc1C(=O)N[C@H]1CCN2C(=O)N(c3ccc(Cl)cc3)C(=O)[C@@H]2C1", "activity change, negative = cytotoxicity": "inactive: -34.2%"}
{"smiles": "CC(C)Cc1ccc(S(=O)(=O)N(C)CC2CCOCC2)cc1", "activity change, negative = cytotoxicity": "inactive: -27.8%"}
{"smiles": "Cn1nc(OC(C)(C)C(=O)NCCc2ccccc2)c2cc(CN3CCCC3)ccc21", "Potency": "inconclusive: 89.1 µM [inhibitor, partial curve]"}
{"smiles": "Nc1nc(NCCCc2ccco2)cc(C2CC(O)C2)n1", "note": "(configuration not stated)", "Potency": "inconclusive: 31.6 µM [inhibitor, full curve]"}
{"smiles": "CCn1cc(S(=O)(=O)N2CCCC(Cc3nncn3CC3CC3)C2)cn1", "note": "(configuration not stated)", "activity change, negative = cytotoxicity": "inactive: 2.46%"}
{"smiles": "CN(Cc1ccc(F)cc1)Cc1cnc(S(C)(=O)=O)n1CCCc1ccccc1", "Potency": "inconclusive: 56.2 µM [inhibitor, partial curve, poor fit]"}
{"smiles": "CCN1c2cc(C(=O)Nc3cccc(F)c3)ccc2C(=O)N2CCCCC21", "note": "(configuration not stated)", "Potency": "inconclusive: 39.8 µM [inhibitor, partial curve, poor fit]"}
{"smiles": "O=C(c1ccsc1)N1CCCC2(C1)Nc1cccnc1NC2=NC1CCCC1", "note": "(configuration not stated)", "activity change, negative = cytotoxicity": "inactive: 2.06%"}
{"smiles": "NC(=O)c1cc2c(nc1N1CCC3(CCCN(CC4CCC4)C3)C1)CCC2", "note": "(configuration not stated)", "activity change, negative = cytotoxicity": "inactive: -9.67%"}
{"smiles": "O=C1NC2(Cc3ccccc31)CN(Cc1ccc(C(F)(F)F)cc1)C2", "Potency": "inconclusive: 44.7 µM [inhibitor, partial curve, poor fit]"}
{"smiles": "CN(c1ccccc1)c1cc(=O)c2ccnc(N3CCOCC3)c2o1", "Potency": "active: 28.2 µM"}
{"smiles": "CNC(=O)[C@H]1C[C@H](Oc2ccccc2)CN1S(=O)(=O)c1ccc(OC)cc1", "outcome": "inactive"}
{"smiles": "COc1ccc(CCNC(=O)c2ccc3nnc(-c4cc(C(F)(F)F)cc(C(F)(F)F)c4)n3c2)cc1", "Potency": "inconclusive: 56.2 µM [inhibitor, partial curve, poor fit]"}
{"smiles": "CCCS(=O)(=O)N1CCC(Cc2nncn2-c2ccccc2)CC1", "Potency": "inconclusive: 79.4 µM [inhibitor, partial curve, poor fit]"}
{"smiles": "Cc1[nH]cnc1CSCCn1ccnc1-c1nccn1C", "activity change, negative = cytotoxicity": "inactive: 4.07%"}
{"smiles": "C=CCC1(CO)CCCN(C(=O)CCCOc2ccccc2)C1", "note": "(configuration not stated)", "Potency": "inconclusive: 25.1 µM [inhibitor, partial curve, poor fit]"}
{"smiles": "COc1cc(F)ccc1-c1nccc2c(=O)cc(N3CCOCC3)oc12", "Potency": "active: 44.7 µM"}
{"smiles": "COc1ccc(-c2cn(C)c(=O)n3cc(CN4CCNC(=O)C4)nc23)cn1", "Potency": "inconclusive: 112 µM [inhibitor, single point]"}
{"smiles": "COc1cccc(-c2nc3cnccn3c2NCCC(=O)Nc2cccc(Cl)c2)c1", "Potency": "inconclusive: 50.1 µM [inhibitor, single point]"}
{"smiles": "COc1ccc(C(=O)NC2CCN(C(=O)c3ccc(-c4ccccc4OC)cc3)CC2)cc1", "Potency": "inconclusive: 50.1 µM [inhibitor, single point] and inconclusive: 50.1 µM [inhibitor, partial curve, poor fit]"}
{"smiles": "O=C1CO[C@H]2CCN(Cc3cccs3)CC[C@@H]2N1Cc1c[nH]c2ccccc12", "Potency": "inconclusive: 89.1 µM [inhibitor, partial curve]"}
{"smiles": "Fc1cccc(-c2cnc(Nc3ccc(N4CCOCC4)cc3)c3c2CCO3)c1", "Potency": "inconclusive: 31.6 µM [inhibitor, partial curve, poor fit]"}
{"smiles": "O=[S+]1([O-])NC2(CCN(Cc3ccc(C(F)(F)F)cc3)C2)CNc2ccccc21", "note": "(configuration not stated)", "Potency": "inconclusive: 50.1 µM [inhibitor, partial curve, poor fit]"}
{"smiles": "CCn1ncc(N2CCCC(CC(=O)NC3CCN(C)CC3)C2)cc1=O", "note": "(configuration not stated)", "activity change, negative = cytotoxicity": "inactive: -8.14%"}
{"smiles": "c1coc(CNC2(Cc3cc(CN4CCOCC4)on3)COC2)c1", "outcome": "inactive [at 138 µM]"}
{"smiles": "O=C(c1ccccc1F)N1CCC(N2CC3(CCCC3)C2c2ccccc2)CC1", "note": "(configuration not stated)", "Potency": "inconclusive: 50.1 µM [inhibitor, partial curve, poor fit]"}
{"smiles": "CN1CCC(NCC2(COc3ccc(C(F)(F)F)cn3)C[C@@H](O)[C@@H](O)C2)CC1", "note": "(some centres not stated)", "Potency": "inconclusive: 89.1 µM [inhibitor, single point]"}
{"smiles": "COc1ccc(-c2ccc3ncc(Nc4ccccc4)n3n2)cc1OC", "Potency": "active: 20 µM"}
{"smiles": "CCN1CCN(C(=O)c2nc3sccn3c2-c2cccnc2)CC1", "activity change, negative = cytotoxicity": "inactive: -16.7% [at 138 µM]"}
{"smiles": "COc1ccccc1-c1nc(C(=O)NCCc2ccc(Cl)cc2)n2ccncc12", "Potency": "active: 28.2 µM"}
{"smiles": "Oc1cccc(Nc2cnc3ccc(-c4ccc(F)cc4)nn23)c1", "Potency": "inconclusive: 28.2 µM [inhibitor, full curve, poor fit]"}
{"smiles": "COc1ccc(Nc2ccnc(N3CCCC(C(=O)NCc4cccc(F)c4)C3)n2)cc1", "note": "(configuration not stated)", "Potency": "active: 15.8 µM"}
{"smiles": "COc1ccccc1Nc1ccnc(N2CCCC(C(=O)NCc3ccc(Cl)cc3)C2)n1", "note": "(configuration not stated)", "Potency": "inconclusive: 11.2 µM [inhibitor, full curve, poor fit]"}
{"smiles": "COCC(=O)N[C@@H](Cn1ccc(=O)[nH]c1=O)C(=O)O", "activity change, negative = cytotoxicity": "inactive: 1.85% [at 230 µM]"}
{"smiles": "Cc1nnc(-c2cc(-c3ccc(CO)cc3)ccn2)n1CCN1CCOCC1", "Potency": "inconclusive: 56.2 µM [inhibitor, partial curve, poor fit]"}
{"smiles": "C[S+](=O)([O-])NC1CC2(CCN(C(=O)Cc3c[nH]c4ccccc34)CC2)c2ccccc21", "note": "(configuration not stated)", "activity change, negative = cytotoxicity": "inactive: -12.3%"}
{"smiles": "O=c1[nH]c2ccccc2n1C1CCN(c2nccc(-c3cccnc3)n2)CC1", "Potency": "active: 31.6 µM"}
{"smiles": "COc1ccccc1Cn1c(-c2ccc(Cl)cc2)nc(C)c(CCO)c1=O", "Potency": "inconclusive: 44.7 µM [inhibitor, partial curve, poor fit]"}
{"smiles": "COc1ccc(CC(=O)NC2CCN(C(=O)c3ccc(-c4cccc(OC)c4)cc3)CC2)cc1", "Potency": "active: 35.5 µM"}
{"smiles": "CC1=C[C@@H](CNC(=O)Cn2cnnn2)[C@H](C(C)C)C[C@H]1Cc1nc2ccncc2[nH]1", "activity change, negative = cytotoxicity": "inactive: -26.2% [at 174 µM]"}
{"smiles": "c1ccc(OCc2cc(CC3(NCc4ccc5c(c4)OCO5)COC3)no2)cc1", "Potency": "inconclusive: 100 µM [inhibitor, partial curve, poor fit]"}
{"smiles": "Cc1cccc(-c2nc(CN3CCC(C(=O)NCCc4noc(-c5ccncc5)n4)CC3)c(C)o2)c1", "activity change, negative = cytotoxicity": "inactive: -21.7%"}
{"smiles": "COCc1nc(-c2ccc(OC3CN(C(=O)NC(C)C)C3)cc2)no1", "activity change, negative = cytotoxicity": "inactive: -22.3%"}
{"smiles": "COc1ccccc1N1CCCc2ncc(C(=O)N3CCN(C(C)=O)CC3)cc21", "Potency": "inconclusive: 89.1 µM [inhibitor, single point]"}
{"smiles": "COc1ccc2[nH]cc(CCNC(=O)C3Cn4cccc4C(=O)N3C)c2c1", "note": "(configuration not stated)", "activity change, negative = cytotoxicity": "inactive: -7.26%"}
{"smiles": "c1ccc(CCc2noc(-c3ccc(NCCN4CCCC4)nc3)n2)cc1", "Potency": "inconclusive: 50.1 µM [inhibitor, partial curve, poor fit]"}
{"smiles": "O=C(c1ccc(Cl)cc1)N1CCC(N2CCCNC2=O)CC1", "activity change, negative = cytotoxicity": "inactive: 2.66%"}
{"smiles": "COc1ccccc1N1CCN([C@@H]2[C@H](O)[C@H](CO)O[C@@H]2CN(Cc2ccc(F)cc2)Cc2ccc(F)cc2)CC1", "Potency": "active: 31.6 µM"}
{"smiles": "COc1ccc(C(=O)NC2CCN(c3cc(C(F)(F)F)nc(C)n3)CC2)cc1", "Potency": "inconclusive: 50.1 µM [inhibitor, partial curve, poor fit]"}
{"smiles": "COc1ccc(-c2ccc3c(c2)C(=O)N2CC[C@H](NC(=O)c4cccs4)[C@H]2C(=O)N3)cc1", "activity change, negative = cytotoxicity": "inactive: -5.75%"}
{"smiles": "O=C1NCc2ccccc2CC12CCCCN2Cc1ccc(CO)o1", "note": "(configuration not stated)", "activity change, negative = cytotoxicity": "inactive: -13.3%"}
{"smiles": "O=C(NCc1cccnc1)c1ccc(-c2ccc(N3CCSCC3)nc2)cc1", "Potency": "active: 4.47 µM"}
{"smiles": "CCCS(=O)(=O)N1CCC2(CC1)CC1C(=O)NCCN1C2", "note": "(configuration not stated)", "activity change, negative = cytotoxicity": "inactive: -3.15%"}
{"smiles": "O=C(NC1CCCN(c2cc(-c3ccccc3)[nH]n2)C1)c1cccc(Br)c1", "note": "(configuration not stated)", "Potency": "inconclusive: 50.1 µM [inhibitor, partial curve, poor fit]"}
{"smiles": "COCCn1ccc2ccc(C(=O)NC3CCCc4c3[nH]c3ccccc43)cc21", "note": "(configuration not stated)", "Potency": "inconclusive: 31.6 µM [inhibitor, full curve, poor fit]"}
